The results in this text go back to PMC4999519.

Protein sequences, listed by entry. Tags and fused reporters are not part of them. Lines headed by an entry give the natural chain unless they say otherwise; changes in a name come on top.
UniProt Q96EB6: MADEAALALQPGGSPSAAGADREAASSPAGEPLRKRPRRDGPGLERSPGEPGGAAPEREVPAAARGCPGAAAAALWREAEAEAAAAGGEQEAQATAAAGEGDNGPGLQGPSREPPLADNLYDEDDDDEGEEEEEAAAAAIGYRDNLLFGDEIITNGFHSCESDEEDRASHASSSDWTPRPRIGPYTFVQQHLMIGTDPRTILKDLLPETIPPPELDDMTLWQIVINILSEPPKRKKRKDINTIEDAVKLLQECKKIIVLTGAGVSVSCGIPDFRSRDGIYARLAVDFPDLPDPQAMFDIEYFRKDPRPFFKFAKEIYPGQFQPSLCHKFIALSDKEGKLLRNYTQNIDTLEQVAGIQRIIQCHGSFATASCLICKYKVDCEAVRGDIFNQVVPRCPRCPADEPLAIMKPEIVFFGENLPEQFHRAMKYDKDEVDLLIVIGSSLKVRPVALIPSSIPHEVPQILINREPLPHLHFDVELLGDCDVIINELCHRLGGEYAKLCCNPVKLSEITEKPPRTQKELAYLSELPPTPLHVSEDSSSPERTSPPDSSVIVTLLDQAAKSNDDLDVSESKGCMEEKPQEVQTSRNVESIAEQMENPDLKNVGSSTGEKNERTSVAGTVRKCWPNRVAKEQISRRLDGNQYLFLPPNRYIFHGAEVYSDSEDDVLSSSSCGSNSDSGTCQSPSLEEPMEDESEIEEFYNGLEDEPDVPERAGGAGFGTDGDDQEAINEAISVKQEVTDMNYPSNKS
UniProt Q01147: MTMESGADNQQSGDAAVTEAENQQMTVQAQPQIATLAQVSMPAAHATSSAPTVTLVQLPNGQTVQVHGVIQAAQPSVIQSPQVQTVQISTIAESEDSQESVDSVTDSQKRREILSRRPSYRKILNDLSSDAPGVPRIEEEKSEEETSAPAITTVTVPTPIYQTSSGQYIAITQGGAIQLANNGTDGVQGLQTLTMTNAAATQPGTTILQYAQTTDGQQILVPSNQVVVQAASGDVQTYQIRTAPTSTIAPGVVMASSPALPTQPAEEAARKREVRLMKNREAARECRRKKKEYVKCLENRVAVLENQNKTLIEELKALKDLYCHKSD
UniProt Q8VDP4: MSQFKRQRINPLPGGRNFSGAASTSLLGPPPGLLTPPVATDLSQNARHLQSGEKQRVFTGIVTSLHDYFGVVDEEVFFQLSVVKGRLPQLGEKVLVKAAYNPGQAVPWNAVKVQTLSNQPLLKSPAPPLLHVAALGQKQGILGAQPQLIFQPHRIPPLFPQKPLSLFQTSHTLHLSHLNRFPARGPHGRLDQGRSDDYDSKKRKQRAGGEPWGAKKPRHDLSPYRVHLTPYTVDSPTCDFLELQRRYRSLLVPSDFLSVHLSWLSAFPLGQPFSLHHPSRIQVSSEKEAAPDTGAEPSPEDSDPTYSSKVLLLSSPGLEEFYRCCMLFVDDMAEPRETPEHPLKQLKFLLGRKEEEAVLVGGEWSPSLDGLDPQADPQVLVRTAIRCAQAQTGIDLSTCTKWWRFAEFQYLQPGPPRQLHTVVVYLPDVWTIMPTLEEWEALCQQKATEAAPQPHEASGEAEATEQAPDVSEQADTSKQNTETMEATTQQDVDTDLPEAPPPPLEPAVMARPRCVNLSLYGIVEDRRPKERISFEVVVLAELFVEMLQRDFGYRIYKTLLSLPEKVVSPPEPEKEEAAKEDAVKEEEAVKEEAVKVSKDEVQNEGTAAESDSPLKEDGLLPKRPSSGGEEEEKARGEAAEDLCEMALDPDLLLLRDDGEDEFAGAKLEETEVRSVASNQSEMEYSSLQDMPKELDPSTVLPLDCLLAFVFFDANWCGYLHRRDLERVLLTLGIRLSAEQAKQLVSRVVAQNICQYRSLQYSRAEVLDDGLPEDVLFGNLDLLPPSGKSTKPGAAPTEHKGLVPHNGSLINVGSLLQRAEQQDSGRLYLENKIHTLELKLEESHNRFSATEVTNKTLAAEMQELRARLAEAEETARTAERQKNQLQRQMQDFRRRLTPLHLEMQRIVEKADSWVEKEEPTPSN

Assay [1] concerns the target T1, Perilipin 5 (endogenous) (mouse (endogenous in C2C12, mouse BAT, brown adipocyte line)) (UniProt Q8BVZ1).
T1 sequence: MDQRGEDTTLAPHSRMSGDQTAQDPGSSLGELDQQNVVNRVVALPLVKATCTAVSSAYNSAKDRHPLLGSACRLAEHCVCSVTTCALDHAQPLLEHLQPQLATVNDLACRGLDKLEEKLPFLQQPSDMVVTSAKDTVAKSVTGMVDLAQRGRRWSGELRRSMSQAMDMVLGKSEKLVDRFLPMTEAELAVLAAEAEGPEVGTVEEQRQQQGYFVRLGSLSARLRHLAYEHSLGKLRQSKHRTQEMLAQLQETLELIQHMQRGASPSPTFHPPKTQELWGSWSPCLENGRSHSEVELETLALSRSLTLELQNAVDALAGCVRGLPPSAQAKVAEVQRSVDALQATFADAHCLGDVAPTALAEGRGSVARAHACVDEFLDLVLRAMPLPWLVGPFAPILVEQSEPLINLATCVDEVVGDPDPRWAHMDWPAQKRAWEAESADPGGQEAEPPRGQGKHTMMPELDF
Put plainly: co-IP; IP of Perilipin 5, western blot for PGC-1α, histone H3, Creb and actin (Supplementary Fig. 11); cells not given. (Immunoblotting shows a protein as a band on a membrane.)

Assay [2] has as its target HA-SIRT1 (UniProt Q96EB6). Put plainly: co-IP; MLTC-1 cells co-transfected with myc-DBC1 and HA-SIRT1 (Supplementary Fig. 13).
The target in assay [3] is T2, Sirtuin 1 (endogenous) (mouse (endogenous in C2C12, mouse BAT, MLTC-1)) (UniProt Q923E4).
T2 sequence: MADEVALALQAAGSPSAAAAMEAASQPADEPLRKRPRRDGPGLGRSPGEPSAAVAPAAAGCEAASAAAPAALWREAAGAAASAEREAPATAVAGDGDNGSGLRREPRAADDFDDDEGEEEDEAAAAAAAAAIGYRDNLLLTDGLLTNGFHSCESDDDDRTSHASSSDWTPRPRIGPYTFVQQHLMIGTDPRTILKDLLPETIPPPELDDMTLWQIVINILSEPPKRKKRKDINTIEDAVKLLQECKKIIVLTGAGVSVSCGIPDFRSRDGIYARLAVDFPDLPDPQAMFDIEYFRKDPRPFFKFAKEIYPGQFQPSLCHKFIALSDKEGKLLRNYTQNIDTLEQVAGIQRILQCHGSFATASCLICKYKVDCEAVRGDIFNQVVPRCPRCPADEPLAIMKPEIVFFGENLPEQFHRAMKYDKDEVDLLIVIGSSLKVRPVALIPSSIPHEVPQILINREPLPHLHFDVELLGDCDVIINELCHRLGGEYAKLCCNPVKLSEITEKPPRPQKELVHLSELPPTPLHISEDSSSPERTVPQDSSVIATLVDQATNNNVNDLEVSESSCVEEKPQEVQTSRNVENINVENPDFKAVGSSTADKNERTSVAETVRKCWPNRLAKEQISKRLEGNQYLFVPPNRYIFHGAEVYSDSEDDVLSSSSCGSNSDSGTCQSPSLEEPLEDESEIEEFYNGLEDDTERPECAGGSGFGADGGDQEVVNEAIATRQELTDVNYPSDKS
Briefly: proximity ligation; PLA for endogenous SIRT1-DBC1 complexes in MLTC-1 cells transfected with siRNA duplexes for 48 h, then vehicle or Iso/IBMX for 30 min.

Assay [4] concerns the target T2, Sirtuin 1 (endogenous) (mouse (endogenous in C2C12, mouse BAT, MLTC-1)). Briefly: co-IP; IP of SIRT1, western blot for DBC1 and SIRT1, from MLTC-1 cells transfected with siControl or siPerilipin 5 and treated with vehicle or Iso/IBMX for 30 min.
Assay [5] has as its target T3, PGC-1α (transfected, Supplementary Fig. 10a) (UniProt O70343).
T3 sequence: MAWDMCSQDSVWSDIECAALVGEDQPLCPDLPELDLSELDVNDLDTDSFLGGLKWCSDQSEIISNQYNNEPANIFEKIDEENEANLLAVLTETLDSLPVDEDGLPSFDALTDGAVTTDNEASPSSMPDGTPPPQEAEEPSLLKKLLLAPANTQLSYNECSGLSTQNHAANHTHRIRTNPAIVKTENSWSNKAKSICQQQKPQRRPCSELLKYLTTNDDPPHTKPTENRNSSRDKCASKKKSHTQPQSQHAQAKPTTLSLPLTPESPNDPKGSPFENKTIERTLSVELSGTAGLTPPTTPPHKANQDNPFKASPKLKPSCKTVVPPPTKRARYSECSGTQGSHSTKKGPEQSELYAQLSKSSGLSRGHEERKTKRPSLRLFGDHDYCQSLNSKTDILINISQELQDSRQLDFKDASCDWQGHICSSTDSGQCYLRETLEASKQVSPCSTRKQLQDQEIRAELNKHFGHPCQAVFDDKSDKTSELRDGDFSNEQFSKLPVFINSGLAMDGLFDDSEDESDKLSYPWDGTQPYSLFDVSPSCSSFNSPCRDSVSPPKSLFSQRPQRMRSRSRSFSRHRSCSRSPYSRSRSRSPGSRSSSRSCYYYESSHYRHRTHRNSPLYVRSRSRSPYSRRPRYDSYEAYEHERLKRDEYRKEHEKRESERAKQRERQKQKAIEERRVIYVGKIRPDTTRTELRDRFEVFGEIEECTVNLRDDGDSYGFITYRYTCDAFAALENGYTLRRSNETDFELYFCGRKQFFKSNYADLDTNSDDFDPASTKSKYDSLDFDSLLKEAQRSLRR
Briefly: co-IP; cells transfected with wild-type Perilipin 5 or Perilipin 2 and PGC-1α; IP of PGC-1α (Supplementary Fig. 10a).

Assay [6] addresses T4, myc-Perilipin 5 (transfected in C2C12 myoblasts) (mouse) (UniProt Q8BVZ1).
T4 sequence: T1 sequence
Put plainly: co-IP; whole-cell extract of C2C12 myoblasts transfected with myc-Perilipin 5 and flag-PGC-1α and treated with Iso/IBMX for 2 h; flag and myc antibodies; non-transfected cells as control.

Assay [7] has as its target T1, Perilipin 5 (endogenous) (mouse (endogenous in C2C12, mouse BAT, brown adipocyte line)). Put plainly: co-IP; IP of Perilipin 5 from intrascapular BAT of wild-type mice treated with CL 316,243 or vehicle.
Assay [8] has the same target. Put plainly: co-IP; nuclear extracts of C2C12 myotubes treated with vehicle or Iso/IBMX for 2 h; IP of PGC-1α or of Perilipin 5; IP buffer 20 mM HEPES pH 7.9, 0.15 M NaCl, 1 mM EDTA, 1 mM EGTA, 1 mM DTT; 4 °C.
Assay [9] has the same target. Put plainly: co-IP; whole-cell lysate of brown adipocytes treated with vehicle or Iso/IBMX for 2 h; IP of Perilipin 5 or of PGC-1α; controls IgG and siRNA for PGC-1α and/or Perilipin 5; also with orlistat or siATGL; lysis in HEPES pH 7.4, 150 mM NaCl, 2 mM EDTA, 1% Triton X-100, 0.5% cholate; 4 °C.

No constants are given. Whether binding was seen depends on the method and setting. In cells and extracts the contact can be indirect. Some entries that bind do so weakly or less than the wild type. For some assays here: Tags and fused reporters may be left off the sequences shown.

For the molecule Creb (from UniProt Q01147 1-327), the binding entry in assay [1] is “no binding”. In the case of myc-DBC1 (from UniProt Q8VDP4 1-922), the binding result in assay [2] was “binds”.

In the case of “Deleted in breast cancer 1 (endogenous) (from UniProt Q8VDP4 1-922)”, the binding entry in assay [3] and in assay [4] was “binds” in each case.

B1: Perilipin 2 (transfected, Supplementary Fig. 10a) (protein, UniProt P43883 1-425)
chain: MAAAVVDPQQSVVMRVANLPLVSSTYDLVSSAYVSTKDQYPYLRSVCEMAEKGVKTVTSAAMTSALPIIQKLEPQIAVANTYACKGLDRMEERLPILNQPTSEIVASARGAVTGAKDVVTTTMAGAKDSVASTVSGVVDKTKGAVTGSVERTKSVVNGSINTVLGMVQFMNSGVDNAITKSELLVDQYFPLTQEELEMEAKKVEGFDMVQKPSNYERLESLSTKLCSRAYHQALSRVKEAKQKSQETISQLHSTVHLIEFARKNMHSANQKIQGAQDKLYVSWVEWKRSIGYDDTDESHCVEHIESRTLAIARNLTQQLQTTCQTVLVNAQGLPQNIQDQAKHLGVMAGDIYSVFRNAASFKEVSDGVLTSSKGQLQKMKESLDEVMDYFVNNTPLNWLVGPFYPQSTEVNKASLKVQQSEVKAQ
Regarding B1, in assay [5], the binding result is “no binding”.

B2: wild-type Perilipin 5 (transfected, Supplementary Fig. 10a) (protein, UniProt Q8BVZ1 1-463)
chain: T1 sequence
On to B2, for which, in assay [5], the binding result is “binds”.

B3: flag-PGC-1α (protein, UniProt O70343 1-797)
chain: T3 sequence
In the case of B3, in assay [6], the binding result is “binds”.

B4: Peroxisome proliferator-activated receptor gamma coactivator 1-alpha (endogenous) (protein, UniProt O70343 1-797)
chain: T3 sequence
In the case of B4, the binding result in [7], in assay [1], in assay [8] and in assay [9] was “binds” in each case.
